The other results are listed elsewhere or left out. The energies were worked out here from pooled read counts, against the library average; single values are noisy.
molecular target: T1, Pho4 (S. cerevisiae) (UniProt P07270); assay: relative binding free energy (BET-seq); higher = weaker binding; settings: reference: library average
T1 sequence: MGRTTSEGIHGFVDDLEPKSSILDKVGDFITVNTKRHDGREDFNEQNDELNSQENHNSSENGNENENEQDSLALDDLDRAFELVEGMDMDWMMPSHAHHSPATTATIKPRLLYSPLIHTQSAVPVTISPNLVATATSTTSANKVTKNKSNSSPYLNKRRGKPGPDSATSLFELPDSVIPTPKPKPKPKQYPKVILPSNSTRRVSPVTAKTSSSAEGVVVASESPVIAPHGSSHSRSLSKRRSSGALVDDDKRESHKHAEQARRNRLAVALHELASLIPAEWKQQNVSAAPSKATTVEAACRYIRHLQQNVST

| Sequence | relative binding free energy [kcal/mol] |
| --- | --- |
| CTGAGCACGTGGATGG | -0.09 |
| TGTGTCACGTGTGCGC | 0.09 |
| TATCGCACGTGGTGCG | -0.1 |
| GGTCTCACGTGGGAGT | 0.12 |
| TTTGGCACGTGCCTTT | -0.11 |
| GAGTGCACGTGCGGGT | -0.08 |
| AGTGTCACGTGTAACG | 0.12 |
| AGTGACACGTGGCGTT | -0.09 |
| TTATTCACGTGTGGAG | 0.33 |
| GTAGACACGTGGGCGA | 0.03 |
| CGGTTCACGTGGAATG | 0.23 |
| TCGGACACGTGGAGGG | 0.12 |
| GTTAGCACGTGAATTA | 0.33 |
| TAGGTCACGTGAGGGC | 0.34 |
| ATTTTCACGTGTGATC | 0.42 |
| ACTGTCACGTGTGTCG | 0.11 |
| AATTCCACGTGGGGGT | -0.14 |
| GTTGTCACGTGTAGGC | 0.25 |
| TACTTCACGTGGGTGG | 0.17 |
| CACGTCACGTGTGGTG | 0.17 |
| AATGACACGTGCTGGT | -0.09 |
| TGAGACACGTGTTCTG | -0.02 |
| ATTTTCACGTGAGGAG | 0.37 |

| Sequence | relative binding free energy [kcal/mol] |
| --- | --- |
| TGGTTCACGTGGACCG | 0.26 |
| AGAAGCACGTGTTAGT | -0.1 |
| CGTGTCACGTGTTTTA | -0.1 |
| GAGGGCACGTGTGTTG | -0.03 |
| TTTATCACGTGGGAAT | 0.13 |
| GGATGCACGTGAGATT | 0.28 |
| AGGGGCACGTGGAAGT | -0.06 |
| ATAGGCACGTGTAAAT | 0.05 |
| GAAGTCACGTGGATAG | 0.28 |
| GGGTTCACGTGCGAAA | 0.34 |
| TGAGGCACGTGCTCGG | -0.18 |
| AGCGCCACGTGAGGTG | 0.21 |
| AACGTCACGTGGGTTC | 0.09 |
| TAGCGCACGTGAAGGT | 0.16 |
| AAAGTCACGTGATTTG | 0.31 |
| TTTCGCACGTGCAAGG | 0.05 |
| AATCTCACGTGGGAGT | 0.37 |
| AGCTGCACGTGGGTTA | -0.07 |
| CTGTTCACGTGAAGTT | 0.27 |
| TCTGACACGTGGAGGG | 0 |
| GGTAGCACGTGCTTAG | -0.08 |
| GTGTTCACGTGGTTTA | 0.3 |
| CTTCACACGTGGGGGG | 0.01 |

| Sequence | relative binding free energy [kcal/mol] |
| --- | --- |
| ATTGTCACGTGGCAGC | 0.12 |
| GGGTGCACGTGTTAGA | 0.03 |
| TATTTCACGTGCGCAT | 0.26 |
| CTGGACACGTGGGTTA | -0.05 |
| ATGGTCACGTGAAATA | 0.29 |
| TTGATCACGTGGATTT | 0.22 |
| CGGAGCACGTGTGTGG | -0.01 |
| TGGGTCACGTGGGTCG | 0.01 |
| CGTAGCACGTGTGGGG | -0.06 |
| GGAGACACGTGTGAGT | 0.13 |
| CGTAGCACGTGGGCAG | -0.18 |
| GGTTTCACGTGTCGTC | 0.37 |
| TAATTCACGTGTGGAG | 0.32 |
| TGCATCACGTGTGGTC | 0.27 |
| TATAGCACGTGGACGG | -0.17 |
| AATGTCACGTGGGTAT | 0.1 |
| TATTTCACGTGATATG | 0.32 |
| ATTCTCACGTGTGTCT | 0.24 |
| ATTTGCACGTGTGCTA | 0.01 |
| GGTAGCACGTGTGAGG | -0.02 |
| TAGGCCACGTGATGTG | 0.08 |
| CTGTTCACGTGTTATT | 0.17 |
| GATAGCACGTGGGGAG | 0.05 |

| Sequence | relative binding free energy [kcal/mol] |
| --- | --- |
| AATTGCACGTGATCGT | -0.06 |
| TCTTTCACGTGATATT | 0.35 |
| TTGTGCACGTGAATGG | 0.23 |
| CCGCGCACGTGGGGGG | -0.32 |
| AGTCCCACGTGTTTGT | 0.08 |
| AGGCTCACGTGGGTGA | 0.05 |
| GTATGCACGTGCGTAT | -0.01 |
| GACTGCACGTGGGGAG | -0.01 |
| ATGATCACGTGCCGGT | 0.22 |
| TGTGCCACGTGCGGGA | -0.15 |
| GAGTACACGTGCGGGG | 0.14 |
| TTCAACACGTGGTGGT | -0.1 |
| TCATGCACGTGGGAGG | -0.12 |
| AAGGGCACGTGTGCTT | -0.11 |
| GCTTGCACGTGCAGGT | 0.13 |
| GGGTTCACGTGGCTGG | 0.29 |
| ACGTGCACGTGGTGCT | -0.13 |
| TGTTACACGTGGATAT | 0.06 |
| AGGTACACGTGGGGAC | 0.01 |
| TTGTACACGTGGACGT | 0.02 |
| TTATGCACGTGTGGGG | -0.02 |
| TCTTTCACGTGGTAAT | 0.2 |
| AGTACCACGTGAGGTG | 0.14 |

| Sequence | relative binding free energy [kcal/mol] |
| --- | --- |
| GAGGTCACGTGGTTAG | 0.07 |
| AGATTCACGTGGCTTT | 0.29 |
| CGGGTCACGTGTTGCG | 0.27 |
| TGTAGCACGTGGGGAA | -0.09 |
| ACTCGCACGTGAGTGG | 0.18 |
| CTATTCACGTGAGTAT | 0.47 |
| TTGAGCACGTGGAATA | 0.02 |
| GGGGCCACGTGGGAAG | -0.32 |
| TACTACACGTGGGGGG | -0.07 |
| TCGGGCACGTGAAGGT | 0.22 |
| TGGAGCACGTGGGTTT | -0.04 |
| AAGTTCACGTGACTGT | 0.42 |
| ATTAACACGTGTTGCT | -0.13 |
| GGATACACGTGTTCGT | 0.04 |
| GGTTGCACGTGTGAGT | 0.11 |
| TCCGTCACGTGGTAGG | 0.01 |
| GGATGCACGTGAAGTG | 0.19 |
| AAACGCACGTGAGGTT | 0.24 |
| ATGTTCACGTGGCAAG | 0.16 |
| GACATCACGTGTTTTT | 0.24 |
| TTAGACACGTGGCTAG | 0.1 |
| TGGGTCACGTGGGGAC | 0.07 |
| GGTATCACGTGAAGTG | 0.24 |

Reference: the BET-seq Pho4 binding data (Le et al. 2018)
